Holding throughout (test): two-hybrid; KAR4-GBD alleles with IME4-GAD in PJ69-4 diploids; 24 hours in meiosis-inducing conditions, then 10-fold serial dilutions on SC-HIS and SC-ADE (HIS3 and ADE2 reporters); graded ++++ to -
In experiment [1] the target is T1, Kar4p A85P fused to the Gal4p DNA-binding domain (S. cerevisiae) (UniProt P25583).
T1 sequence: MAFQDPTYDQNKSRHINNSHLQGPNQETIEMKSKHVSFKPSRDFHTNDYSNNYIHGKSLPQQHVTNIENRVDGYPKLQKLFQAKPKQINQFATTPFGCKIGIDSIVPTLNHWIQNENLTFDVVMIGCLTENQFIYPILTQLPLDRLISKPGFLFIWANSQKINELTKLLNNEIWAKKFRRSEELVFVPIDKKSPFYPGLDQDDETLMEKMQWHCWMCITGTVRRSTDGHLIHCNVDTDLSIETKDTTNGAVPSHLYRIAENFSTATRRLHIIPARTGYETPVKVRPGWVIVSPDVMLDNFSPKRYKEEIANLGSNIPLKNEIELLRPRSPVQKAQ

Experiment [2] has as its target T2, Kar4p fused to the Gal4p DNA-binding domain (S. cerevisiae) (UniProt P25583).
T2 sequence: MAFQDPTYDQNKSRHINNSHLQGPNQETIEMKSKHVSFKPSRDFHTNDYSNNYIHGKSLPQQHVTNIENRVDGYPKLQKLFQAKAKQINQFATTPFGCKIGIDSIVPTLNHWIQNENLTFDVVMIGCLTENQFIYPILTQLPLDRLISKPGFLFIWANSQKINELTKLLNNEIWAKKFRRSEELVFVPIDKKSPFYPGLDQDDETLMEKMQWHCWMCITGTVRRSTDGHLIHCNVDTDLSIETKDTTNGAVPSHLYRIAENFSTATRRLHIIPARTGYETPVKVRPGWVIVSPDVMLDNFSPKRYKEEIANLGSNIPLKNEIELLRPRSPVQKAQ

Experiment [3] addresses T3, Kar4p Q132K fused to the Gal4p DNA-binding domain (S. cerevisiae) (UniProt P25583).
T3 sequence: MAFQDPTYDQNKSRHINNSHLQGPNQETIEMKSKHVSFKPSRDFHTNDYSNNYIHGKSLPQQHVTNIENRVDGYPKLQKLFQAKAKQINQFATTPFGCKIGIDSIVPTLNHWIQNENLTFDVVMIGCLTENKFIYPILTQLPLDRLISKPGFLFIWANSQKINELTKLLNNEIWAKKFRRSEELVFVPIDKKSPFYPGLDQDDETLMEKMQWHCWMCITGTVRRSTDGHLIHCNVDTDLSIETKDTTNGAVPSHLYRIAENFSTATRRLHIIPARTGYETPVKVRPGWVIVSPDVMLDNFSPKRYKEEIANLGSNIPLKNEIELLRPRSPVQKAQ

Experiment [4] deals with T4, Kar4p G126A fused to the Gal4p DNA-binding domain (S. cerevisiae) (UniProt P25583).
T4 sequence: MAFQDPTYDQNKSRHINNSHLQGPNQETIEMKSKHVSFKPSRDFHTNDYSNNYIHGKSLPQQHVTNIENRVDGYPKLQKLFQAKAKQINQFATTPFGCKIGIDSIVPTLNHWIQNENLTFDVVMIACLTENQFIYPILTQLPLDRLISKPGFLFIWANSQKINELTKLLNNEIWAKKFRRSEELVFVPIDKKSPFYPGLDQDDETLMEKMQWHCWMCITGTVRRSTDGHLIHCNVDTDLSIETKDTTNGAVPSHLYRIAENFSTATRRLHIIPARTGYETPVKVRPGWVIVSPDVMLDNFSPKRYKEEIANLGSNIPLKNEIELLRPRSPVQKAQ

Experiment [5] has as its target T5, Kar4p P273L fused to the Gal4p DNA-binding domain (S. cerevisiae) (UniProt P25583).
T5 sequence: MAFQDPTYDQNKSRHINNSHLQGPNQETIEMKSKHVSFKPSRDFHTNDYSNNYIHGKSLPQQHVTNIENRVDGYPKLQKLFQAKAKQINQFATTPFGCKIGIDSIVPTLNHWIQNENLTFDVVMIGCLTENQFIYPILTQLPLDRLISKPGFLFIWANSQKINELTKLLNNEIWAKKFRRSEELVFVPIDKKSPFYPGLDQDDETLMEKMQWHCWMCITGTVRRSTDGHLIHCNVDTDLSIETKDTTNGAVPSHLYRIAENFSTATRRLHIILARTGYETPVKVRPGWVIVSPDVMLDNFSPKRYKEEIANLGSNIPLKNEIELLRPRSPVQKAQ

For experiment [6], the target named is T6, Kar4p E183K fused to the Gal4p DNA-binding domain (S. cerevisiae) (UniProt P25583).
T6 sequence: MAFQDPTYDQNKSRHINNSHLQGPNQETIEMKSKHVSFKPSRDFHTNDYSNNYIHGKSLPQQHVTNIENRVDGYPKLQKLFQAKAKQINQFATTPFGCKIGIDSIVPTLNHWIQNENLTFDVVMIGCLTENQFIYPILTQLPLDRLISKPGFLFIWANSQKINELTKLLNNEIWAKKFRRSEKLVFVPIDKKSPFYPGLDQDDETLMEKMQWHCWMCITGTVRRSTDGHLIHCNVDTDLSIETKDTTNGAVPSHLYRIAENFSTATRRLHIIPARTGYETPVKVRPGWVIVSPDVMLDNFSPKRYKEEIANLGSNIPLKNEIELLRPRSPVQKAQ

These are yes or no findings as the source states them, for the method shown. Some entries that bind do so weakly or less than the wild type. Where a sequence is shown, tags or fusion partners need not be part of it.

B1: Ime4p fused to the Gal4p activating domain (protein, UniProt P41833 1-600)
chain: MINDKLVHFLIQNYDDILRAPLSGQLKDVYSLYISGGYDDEMQKLRNDKDEVLQFEQFWNDLQDIIFATPQSIQFDQNLLVADRPEKIVYLDVFSLKILYNKFHAFYYTLKSSSSSCEEKVSSLTTKPEADSEKDQLLGRLLGVLNWDVNVSNQGLPREQLSNRLQNLLREKPSSFQLAKERAKYTTEVIEYIPICSDYSHASLLSTSVYIVNNKIVSLQWSKISACQENHPGLIECIQSKIHFIPNIKPQTDISLGDCSYLDTCHKLNTCRYIHYLQYIPSCLQERADRETASENKRIRSNVSIPFYTLGNCSAHCIKKALPAQWIRCDVRKFDFRVLGKFSVVIADPAWNIHMNLPYGTCNDIELLGLPLHELQDEGIIFLWVTGRAIELGKESLNNWGYNVINEVSWIKTNQLGRTIVTGRTGHWLNHSKEHLLVGLKGNPKWINKHIDVDLIVSMTRETSRKPDELYGIAERLAGTHARKLEIFGRDHNTRPGWFTIGNQLTGNCIYEMDVERKYQEFMKSKTGTSHTGTKKIDKKQPSKLQQQHQQQYWNNMDMGSGKYYAEAKQNPMNQKHTPFESKQQQKQQFQTLNNLYFAQ
For B1, the binding result in experiment [1] is “binds”; in experiment [2], “binds”; in experiment [3] it was “no binding”; in experiment [4], “no binding”; in experiment [5] it was “binds”; in experiment [6], “binds”.

The values above are taken from paper PMC10470960.
